SMILES strings stand for the structures. Out of some 310,000 compounds screened, about 14,000 (4.5%) showed an effect of 50% or more. The effect is printed as a negative number. Some of the results follow.

The text below walks through data of publication PMC4336329 (PLoS ONE, 2015).
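Further: peak tail current of the secondary pulse compared with the same well before compound.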

Chain of human ether-à-go-go-related gene (hERG) potassium channel (Q12809 whole entry, looked up): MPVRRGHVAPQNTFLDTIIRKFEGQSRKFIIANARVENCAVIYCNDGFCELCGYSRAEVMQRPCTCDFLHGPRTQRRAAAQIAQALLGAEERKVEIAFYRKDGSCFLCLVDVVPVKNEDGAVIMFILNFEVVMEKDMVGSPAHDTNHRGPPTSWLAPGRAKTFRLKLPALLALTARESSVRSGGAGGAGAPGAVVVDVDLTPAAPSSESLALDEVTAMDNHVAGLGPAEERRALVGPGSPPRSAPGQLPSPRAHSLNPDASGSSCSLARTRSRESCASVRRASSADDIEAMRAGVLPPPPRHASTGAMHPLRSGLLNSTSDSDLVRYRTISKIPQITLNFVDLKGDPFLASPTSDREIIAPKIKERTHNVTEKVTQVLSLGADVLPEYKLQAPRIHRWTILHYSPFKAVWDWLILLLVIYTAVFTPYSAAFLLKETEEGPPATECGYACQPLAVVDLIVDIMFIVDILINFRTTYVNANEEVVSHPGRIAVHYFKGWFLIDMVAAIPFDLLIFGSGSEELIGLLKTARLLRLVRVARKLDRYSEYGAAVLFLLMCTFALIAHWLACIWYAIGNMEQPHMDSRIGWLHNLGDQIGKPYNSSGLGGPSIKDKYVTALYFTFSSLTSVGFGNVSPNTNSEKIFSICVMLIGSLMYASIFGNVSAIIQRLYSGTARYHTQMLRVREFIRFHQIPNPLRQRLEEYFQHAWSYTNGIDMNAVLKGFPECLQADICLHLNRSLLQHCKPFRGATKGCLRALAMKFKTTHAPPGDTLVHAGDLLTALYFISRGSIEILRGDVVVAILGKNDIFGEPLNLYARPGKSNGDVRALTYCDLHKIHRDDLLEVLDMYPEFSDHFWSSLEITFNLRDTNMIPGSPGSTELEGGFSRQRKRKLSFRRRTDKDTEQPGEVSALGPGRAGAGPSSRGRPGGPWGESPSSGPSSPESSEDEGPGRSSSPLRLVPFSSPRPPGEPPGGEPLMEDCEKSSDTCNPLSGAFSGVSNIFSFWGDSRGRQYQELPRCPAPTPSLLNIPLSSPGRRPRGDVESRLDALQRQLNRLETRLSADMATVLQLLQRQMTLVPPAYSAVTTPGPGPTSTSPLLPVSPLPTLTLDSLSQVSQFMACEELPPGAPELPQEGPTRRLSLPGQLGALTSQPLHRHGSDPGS

The experiment addresses human ether-à-go-go-related gene (hERG) potassium channel (human, UniProt Q12809). The experiment in a line: primary screen, population patch clamp on CHO cells stably expressing hERG.
`CCCc1noc2c1C(c1ccoc1)C(C#N)=C(N)N2` (centres unmarked): the “hERG current change (%, negative = inhibition) at 10uM” value was 3.87%.
For `Cc1ccc(NC2CC(=O)N(c3ccc(C)cc3)C2=O)cc1` (centres unmarked) the value was -0.727%; for `CC1(c2nnc(Cc3ccccc3)o2)CC(c2cccc(F)c2)=NO1` (centres unmarked), -3.35%; for `COc1cccc(N/C(SCc2cccc([N+](=O)[O-])c2)=C(/C#N)C(=O)NCc2cccs2)c1`, 0.656%.
For `COc1ccc(S(=O)(=O)c2nnn(-c3cccc(OC)c3)c2N)cc1` the value was -30.1%; for `O=C(NC(C(=O)N/N=C/c1ccncc1)c1n[nH]c(=O)c2ccccc12)c1ccccc1` (centres unmarked), 13.1%; for `Cc1cc(=O)cc(C)n1-c1ccc(Cl)c(Cl)c1`, 13.5%.
For `O=C(COC(=O)CCOc1ccccc1)Nc1ncc(Cl)cc1Cl` the value was -2.65%.
Take `S=c1[nH]nc(CSCCOc2ccccc2)o1`: the “hERG current change (%, negative = inhibition) at 10uM” value is recorded as 8.24%.
For `O=C(COc1ccccc1)Nc1ccc(CSc2ccccc2)cc1` the value was 14.6%; for `O=C1NC(=O)C(CCc2ccncc2)(Cc2ccc([N+](=O)[O-])cc2)C(=O)N1`, 10.8%; for `Nc1nc(-c2ccccc2)nn1S(=O)(=O)c1ccccc1`, 16%.
For `COc1ccc(N2CC(O)(c3ccc(C)cc3)[N+]3=C2CCCC3)cc1.[Br-]` (centres unmarked), the “hERG current change (%, negative = inhibition) at 10uM” value is on record as -38.9%.
With `Cc1ccc(CN2CCN(CC3CC4C=CC3C4)CC2)cc1` (centres unmarked) the figure was -46.8%; with `Cc1ccc(S(=O)(=O)n2cnc3cc([N+](=O)[O-])ccc32)c(C)c1`, -6.34%.
With `O=C1N=C(N2CCCC2)S/C1=C\C=C\c1ccccc1` the figure was -32.4%.
With `Cc1cc(C)cc(N2CN=c3s/c(=C\c4ccco4)c(=O)n3C2)c1` the figure was 3.07%.
`COc1ccc(OCC(=O)NCc2n[nH]c(=O)c3ccccc23)cc1`: the “hERG current change (%, negative = inhibition) at 10uM” value is reported as -21.7%.
With `CC(=O)NNc1nc(-c2ccccc2)c2cc(Br)ccc2n1` the figure was 5.01%; with `O=C(COC(=O)c1cncc(Br)c1)NCc1ccco1`, 8.22%.
For `O=C(NCc1cc([N+](=O)[O-])ccc1O)c1cccc(NS(=O)(=O)c2ccccc2)c1` the value was 18.3%.
In the case of `CC(=O)NC(CCS(C)(=O)=O)C(=O)Nc1ccc(Oc2ccccc2)cc1` (centres unmarked), the “hERG current change (%, negative = inhibition) at 10uM” value is on record as -4.68%.
On to `Cc1ccc(OCCNC(=O)c2ccccc2F)cc1`, for which the “hERG current change (%, negative = inhibition) at 10uM” value is listed as -3.2%.
For `COc1cccc(CC(=O)Nc2ncc(C)s2)c1` the value was 7.43%; for `Cc1cccc(-c2ncc(CN3CCN(CC(C)C)C(CCO)C3)cn2)c1` (centres unmarked), -47.9%; for `Cc1ccccc1CN1C[C@@H]2C[C@@H](c3cn(C)nc3-c3ccccc3)N3CCC[C@@]23C1=O`, 3.15%.
With `CCC(=O)Nc1ccc2c(c1)nc(CCN1CCN(C)CC1)n2C` the figure was 29.3%; with `Cc1cccc(N2CCN(S(=O)(=O)c3c(C)[nH]c(C)c3C(=O)N3CCCC3)CC2)c1C`, -0.48%.
In the case of `N#CC(C#N)=C1C=CC=CN1/C(=C\c1ccco1)C(=O)c1ccc(-c2ccccc2)cc1`, the “hERG current change (%, negative = inhibition) at 10uM” value is on record as 3.14%.
For `NC(=O)C1CCN(c2ccc3c(c2)S(=O)(=O)c2ccccc2C3=O)CC1` the value was 4.28%.
With `Cc1nc(C(=O)Nc2ccc(Cl)cc2)nn1-c1ccc([N+](=O)[O-])cc1`, the “hERG current change (%, negative = inhibition) at 10uM” value was -58.6%.
For `COc1ccccc1N1CCN(/N=C/c2ccc(Cl)c([N+](=O)[O-])c2)CC1` the value was 10.6%; for `CCCCn1c(=O)c(C(=O)NC(C)c2ccccc2)c(O)c2ccccc21` (centres unmarked), 24.3%; for `CC(C)NC(=O)[C@@H]1C[C@@]1(C)[C@@H](NC(=O)OCc1ccccc1)c1ccccc1`, 14.7%.
For `NC(=O)c1cc(-c2ccccc2)sc1NC(=O)CN1CCCCC1` the value was 0.904%; for `Cc1cccn2c(=O)c3cc(S(=O)(=O)c4ccccc4)c(=N)n(Cc4ccc(F)cc4)c3nc12`, 24.7%; for `Cc1cccc(N2C(=O)C3C4C=CC(C4)C3C2=O)c1` (centres unmarked), -8.32%.
With `Cc1cccc(NC(=O)CSc2nnc(CNC(=O)c3ccco3)n2C)c1` the figure was 19.3%; with `COc1ccccc1OCc1ccc(C(=O)NC(C)c2ccccc2)o1` (centres unmarked), -11.9%.
Consider `CC(=O)N1c2ccc(S(=O)(=O)N3CCC(C(=O)Nc4cccc(C)c4C)CC3)cc2CC1C` (centres unmarked), for which the “hERG current change (%, negative = inhibition) at 10uM” value is recorded as -29.7%.
For `Cc1ccc(C)c(N2CCN(S(=O)(=O)c3ccc4c(c3)oc(=O)n4C)CC2)c1` the value was 5.15%; for `COC(=O)CCCC1=CC2=CC(=O)C(C)(OC(=O)c3cccs3)C(=O)C2=CN1c1ccc(OC)cc1` (centres unmarked), -13.2%; for `O=C(CN1C(=O)NC2(CCOc3ccccc32)C1=O)c1ccc(Cl)s1` (centres unmarked), -20.8%.
For `C/C(=N\Nc1ncc(Br)cn1)c1cccc([N+](=O)[O-])c1` the value was -4.39%; for `CCOc1ccc(CNC(=O)c2nnc(CS(=O)(=O)c3ccccc3)o2)cc1OC`, 7.93%.
For `Cc1ccc2c(c1)C=CC(C#N)N2C(=O)c1ccccc1` (centres unmarked) the value was 16.3%; for `O=C(NC1CCS(=O)(=O)C1)/C(=C\c1ccc(F)cc1)NC(=O)c1ccccc1` (centres unmarked), -34.7%.
For the molecule `CN(Cc1ccno1)C(=O)CC1C(=O)NCCN1CC(c1ccccc1)c1ccccc1` (centres unmarked), the “hERG current change (%, negative = inhibition) at 10uM” value is reported as 8.76%.
As for `Cc1ccc(S(=O)(=O)N(CC#N)CC#N)cc1`, the “hERG current change (%, negative = inhibition) at 10uM” value came to 1.71%.
Take `COc1cccc(S(=O)(=O)NCc2ccc(C(=O)N3CCN(c4ccccc4)CC3)cc2)c1`: the “hERG current change (%, negative = inhibition) at 10uM” value is recorded as -14.5%.
For `COc1ccc(-c2ccc(-c3noc(-c4cccc(OC)c4)n3)c(OC)n2)cc1` the value was 8.95%; for `CCN(Cc1ccccc1)C(=O)Cn1cc(S(=O)(=O)NC)c(S(=O)(=O)NC)c1`, 4.06%; for `O=C(CCN1C(=O)c2ccccc2S1(=O)=O)Nc1ccc(C(=O)O)cc1`, 10.4%.
